Results from PubChem BioAssay AID1347417 (National Center for Advancing Translational Sciences (NCATS), 2020).
Hit rate of the full screen: of about 120,000 compounds, about 5,300 (4.4%) were called active. The inconclusive results got no clear call from the source; some entries with a clear call stand among them for comparison. Calls follow the shape of the dose curve; as a rule, active = well fitted inhibition curve with a large enough effect; inconclusive = small, poorly fitted or top-dose-only effect; inactive = no such curve, though single readings can be large or run the other way. A potency beside an inconclusive call is a rough fit, not a confirmed value.

Experiment: qHTS Primary assay for Inhibitors of Plasmodium falciparum Dd2 growth in vitro; also: nearly all actives have a fitted effect of over 65% in size;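 as to activity, negative = inhibition: plate controls were DMSO vehicle for no effect and reference drug for full effect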
Details: P. falciparum Dd2 growth, SYBR Green, 72 h; activity, negative = inhibition: at 28.9 µM (top of the series) unless noted; series mostly up to 28.9 µM
Summary of the method: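 Readout: SYBR Green fluorescence, 485 nm excitation, 535 nm emission, after ~16 h lysis at 37C. Before that, Dd2-infected red cells (2.5% hematocrit) grew 72 h with compound, 29 uM top final concentration.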
Potency is read from the fitted curve at half-maximal effect; tags tell the direction and shape of the fitted curve.

SMILES | activity, negative = inhibition | Potency | outcome
CN(C)Cc1nnc(C2CCN(C(=O)Nc3cccc(C#N)c3)CC2)n1C | inactive: -7.8% |  | 
Cc1ccc2oc3c(c(=O)c2c1)C(c1ccc(O)cc1)N(Cc1ccc2c(c1)OCO2)C3=O (stereo not drawn) | inconclusive: -35.5% [inhibitor] [at 5.79 µM] |  | 
CCOc1ccc(C(=O)c2cn(CC(=O)Nc3ccc(OC)cc3)c3cc4c(cc3c2=O)OCCO4)cc1 | inactive: 25.2% |  | 
Cc1ccc(S(=O)(=O)N2CCCC(CCC(=O)N3CCCCC3)C2)cc1 (stereo not drawn) |  | inconclusive: 20 µM [inhibitor, partial curve, poor fit] | 
CC12CN3CC(c4ccccc4)(CN(C1)C3c1ccc(O)cc1)C2=O (stereo not drawn) |  | inconclusive: 12.6 µM [inhibitor, single point] | 
CCOC(=O)c1c(NC(=O)C(C)Sc2cn(CCNC(=O)c3c(F)cccc3F)c3ccccc23)sc2c1CCC2 (stereo not drawn) |  | active: 7.94 µM | 
N#Cc1ccccc1N1CCN(C(=O)CCc2ccc(F)c(F)c2)CC1=O | inactive: 1.02% |  | 
COc1ccc(C(=O)N2C[C@@H]3C[C@H](C2)c2c(NS(=O)(=O)c4cccs4)ccc(=O)n2C3)cc1 | inactive: -8.57% |  | 
Cc1nn(-c2ccc(C(F)(F)F)cc2)c(C)c1[C@@H]1C=C[C@@H](NC(=O)COCC(=O)O)C1 |  | inconclusive: 7.08 µM [inhibitor, partial curve] | 
CCCc1cc(N2CCC(NCc3c(F)cccc3Cl)CC2)nc(C)n1 |  | inconclusive: 12.6 µM [inhibitor, partial curve] | 
COc1cccc(CNC(=O)c2cc(C)nc3c2c(C)nn3-c2ccc(C)cc2)c1 |  | inconclusive: 11.2 µM [inhibitor, single point] | 
COc1ccc(CCc2nc3nccc(-c4cccs4)n3n2)cc1OC |  | inconclusive: 8.91 µM [inhibitor, partial curve] | 
Cc1ccc(Cn2c(C(=O)O)c(CNCc3ccc(OC(C)C)cc3)c3ccc(C)cc32)cc1 |  | active: 11.2 µM | 
CC(C)(C)c1nc(C(=O)NCCc2ccc(Cl)cc2)n2ccncc12 |  | active: 2.24 µM | 
Cc1noc(-c2ccccc2Cl)c1C(=O)NCc1cc(F)cc(F)c1 |  | inconclusive: 12.6 µM [inhibitor, single point] | 
COc1cc(OC)c(NC(=O)C2CCN(S(=O)(=O)c3c(C)noc3/C=C/c3c(C)cc(C)cc3C)CC2)cc1Cl |  |  | inactive
COc1ccc(CC(=O)Nc2ccc3nc(Nc4ccc(OC)cc4)cc(C)c3c2)cc1 |  | inconclusive: 12.6 µM [inhibitor, single point] | 
CCOC(=O)c1c(C)oc2nc(C)nc(Nc3ccc(C)c(Cl)c3)c12 |  | inconclusive: 0.316 µM [inhibitor, full curve, poor fit] | 
